The other results are listed elsewhere or left out.
T1: UNK ZnF1-6 (called full-length) (human, UniProt Q9C0B0 30-357)
T1 sequence: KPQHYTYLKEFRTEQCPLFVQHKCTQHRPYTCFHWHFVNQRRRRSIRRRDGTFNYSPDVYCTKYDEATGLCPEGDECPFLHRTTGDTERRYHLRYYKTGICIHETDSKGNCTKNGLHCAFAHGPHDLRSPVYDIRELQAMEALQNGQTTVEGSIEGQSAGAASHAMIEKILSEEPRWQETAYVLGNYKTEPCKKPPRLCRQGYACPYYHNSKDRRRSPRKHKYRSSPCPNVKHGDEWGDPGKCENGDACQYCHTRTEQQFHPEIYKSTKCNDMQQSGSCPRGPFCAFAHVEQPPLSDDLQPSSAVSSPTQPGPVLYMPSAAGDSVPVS

B1: chr7:139028693:139028797:-|CDS|ENSG00000146858|unk|FALSE|unique (ssRNA)
RNA: GGGAGUUCUACAGUCCGACGAUCUUUCAGAUAAUCUCCACCUACAAGCAUAUGAAGCUGCACAAGAUGCUUGAAAAUACAGGUAGGAAUAUCCAAGAAGGACAGAGAAGUAUCAGCGAUAUGGUUUUGCGAUGCUUCACUGUGCAACAGAGGAUUGAGCAUCA
B2: chr1:62864655:62864756:+|3pUTR|ENSG00000125703|unk|FALSE|unique (ssRNA)
RNA: GGGAGUUCUACAGUCCGACGAUCUUUGUUAACUGUGAUAUGCAUACACUUAUAUAAGCAGAAUUAUGAGUUAAAGUAAUACUUAGCAAUAUGAUUUUAUAAUGGCUCCUCAUUAUGCUUGCUGUUGAACCUUUUAUGAGGAGUCAACAGAGGAUUGAGCAUCA
B3: chr8:52110837:52113338:-|three_prime_utr|ENSG00000147488|control|control|control (ssRNA)
RNA: GGGAGUUCUACAGUCCGACGAUCCCCCGGAAUGCAAAGCUCUACUGGAAAGUAUCAAACAGGCAGUGAAGGGUAUCCAUGUGUAGGAUCACAGCGCUGCCGGGCAACAGAAGUUACCAACAGCAGUAAACUCCAGAUGGAUCUCAACAGAGGAUUGAGCAUCA
B4: chr1:93353930:93354034:+|CDS|ENSG00000117505|unk|FALSE|unique (ssRNA)
RNA: GGGAGUUCUACAGUCCGACGAUCUUUGGGAUUUGGCUCUUACAUCAGUGAAGUAAAAGAAGUCUUGCAAGAGUGUAAAACAGUAGCAUUAAAAAGAAGAAAGGCCAGUUCUCGUUUGGAAAACCUUGGCAUUCCUGAAGAAGACAACAGAGGAUUGAGCAUCA
B5: chr11:56232108:56233062:-|CDS|ENSG00000181718|control|control|control (ssRNA)
RNA: GGGAGUUCUACAGUCCGACGAUCGACAAUCCUCUUCAUGUAUGUGAGACCAAGUUCCAGCUAUGCUUCGGACCAUGACAUGAUAGUGUCAAUAUUUUACACCAUUGUGAUUCCCUUGCUGAAUCCCGUCAUCUACAGUUUGAGCAACAGAGGAUUGAGCAUCA
B6: chr20:57651677:57651767:-|3pUTR|ENSG00000124225|msi1_unk|total|mutant (ssRNA)
RNA: GGGAGUUCUACAGUCCGACGAUCGUUGAGCUGUGUCUUGAAGGCAAAAGAAAAAAAAUUUCUACAGCCGUCUUUCUUGUUUCCCGUUGAGCUGCGUGCGUGAAUGCUUAUUUUCUUUUGUUUAUGAUAAUUUCACUUAACUUUCAACAGAGGAUUGAGCAUCA
B7: chr1:1785892:1785993:-|3pUTR|ENSG00000078369|msi1|FALSE|unique (ssRNA)
RNA: GGGAGUUCUACAGUCCGACGAUCUUUACUCUUAGAAUCGCAUGCUGUAGAAAUGCUCAAAAGUGCAUAUGGGACUCAGUCCUUAGGUGUUCUUUUUCUUUUAAGAAAUAACCUCUUACAGUUGUAACCAUUGCGGCUCUGUCCCAACAGAGGAUUGAGCAUCA
B8: chr18:21869459:21869560:+|3pUTR|ENSG00000101752|msi1|FALSE|unique (ssRNA)
RNA: GGGAGUUCUACAGUCCGACGAUCUAAAAGAUGGUCUUUAGUGCACGUGUAUCAUUAUAUACACGUUUUAAAGUCAUAUUGCUUAGCUUGUUAAUAAUGAUUCUGCAUGUGUGCUGGGUUUGGGUAAUUCUUUAAAGGAAGUUUCAACAGAGGAUUGAGCAUCA
B9: chr17:4937608:4937709:-|3pUTR|ENSG00000108528|msi1|total|mutant (ssRNA)
RNA: GGGAGUUCUACAGUCCGACGAUCAAGCGUCUCUUCCUCAGUGGCUGAAGCGGCCGGGGGCUCCCACUCGCCUGCUGCGCCUACCGCCACUGCGCCCUGGGGGCCUGGGCUCUGCUGCCCUGGACCCCUCUAUUUAUUUCCCUUCAACAGAGGAUUGAGCAUCA
B10: chr5:72207278:72207408:+|3pUTR|ENSG00000131711|msi1_unk|FALSE|overlapping (ssRNA)
RNA: GGGAGUUCUACAGUCCGACGAUCAGAGAACAAUGACCUCAUUUUAUUUUCUAUGUUAGUUAUUUAUUUCAAAAUUAACAUUUUAGUUGAUUUUUGUCUGAUAAGUCUAUGUUUUGCACUGCUAACUAUGAUGAGGGUUUAAAACAACAGAGGAUUGAGCAUCA
B11: chr3:81489889:81489990:-|3pUTR|ENSG00000114480|msi1|total|mutant (ssRNA)
RNA: GGGAGUUCUACAGUCCGACGAUCUUGGUCUAAAUUAUGAGGUACCAAGAUUGUUUCUUUGUUUCUUUUUUUCAAAUUGUGUUCCGAAAUACUGUAAUAAAUAUGCAGCCGUGAUAUAAAGAAUUAUAUCCAAGGUAAUAUAAACAACAGAGGAUUGAGCAUCA
B12: chr11:108393207:108393378:-|CDS|ENSG00000166323|control|control|control (ssRNA)
RNA: GGGAGUUCUACAGUCCGACGAUCUCUAGGACUAAUUCACACUGCAACAAAGGGGCUGAUUAGAGCUUUUGAAGAUGGGGGGAUAGAUUCUGUGAUGGAAUGGGAAGUGGAUGAAGUGCUGAACUGGACAAAUACACUGAACUUCAACAGAGGAUUGAGCAUCA
B13: chr5:72209348:72209524:+|3pUTR|ENSG00000131711|msi1_unk|total|mutant (ssRNA)
RNA: GGGAGUUCUACAGUCCGACGAUCUUAUGUCUUAUAAUCCUGCAUCACUUCUAUCCUAUCCAGUCAUAUCUAAUGCCGAAAAUCCGUUUCCAGUGAAAGUAAUAUGCCGUGCUUUUAUGAUAUUUGUGUGCAAUAUCCCCUCUUCAACAGAGGAUUGAGCAUCA
B14: chr5:136174412:136174513:+|CDS|ENSG00000113658|unk|FALSE|unique (ssRNA)
RNA: GGGAGUUCUACAGUCCGACGAUCUAUGUUGGUGGAGAGGUGUAUGCGGAAUGCCUCAGUGACAGCAGCAUAUUUGUACAGAGUAGGAACUGCAACUUUCAUCAUGGCUUUCAUCCCACCACUGUCUGUAAGAUUCCCAGCAGCCAACAGAGGAUUGAGCAUCA
B15: chr14:92688591:92688692:+|3pUTR|ENSG00000100599|msi1|total|mutant (ssRNA)
RNA: GGGAGUUCUACAGUCCGACGAUCUCCCCAUGAGUCCCCCACACCCACCCCAUCCUCGGUCUUUGCAAAGAAGGGCCCGAGCUCCGUUUCCCCAGGACUGGCCCCGGAAGGAGCACCGGCCACAGCUGCUCCCCGUGCCACUCACAACAGAGGAUUGAGCAUCA
B16: chr8:93923365:93923466:+|CDS|ENSG00000164951|msi1|FALSE|unique (ssRNA)
RNA: GGGAGUUCUACAGUCCGACGAUCGCAGGAUGUGGUUAGGAUUGUGGGUGAGUACCUAACUGGCAUGCAUCACCAACAGCCAAUAGCUGUUGGUGGCUACAAGGUGACUCUGGGACAGAUGCAUGGCCUUUUAACAGAAAGGAGCAACAGAGGAUUGAGCAUCA
B17: chr9:97930034:97931221:-|CDS|ENSG00000136929|control|control|control (ssRNA)
RNA: GGGAGUUCUACAGUCCGACGAUCCAAUGAAACAGAUCAAGGAAUAGCUGAGACAGAAGGCCUUUUUCCUAAAAUACAAGAAAUAGCUGAGCCUAAAGACCUUUCUACAAAAACACACCAAGAAUCAGCUGAACCUAAAUACCUCAACAGAGGAUUGAGCAUCA
B18: chr22:29286963:29287064:+|CDS|ENSG00000182944|unk|total|mutant (ssRNA)
RNA: GGGAGUUCUACAGUCCGACGAUCCAGAGCAGUUACUCUCAGCAGAACACCUAUGGGCAACCGAGCAGCUAUGGACAGCAGAGCCGCUAUGGUCAACAAAGCAGCUAUGGGCAGCAGCCUCCCACCCGUUACCCACCCCAAACUCAACAGAGGAUUGAGCAUCA
B19: chr14:96489241:96489342:+|3pUTR|ENSG00000140057|unk|total|mutant (ssRNA)
RNA: GGGAGUUCUACAGUCCGACGAUCUAAAGUGUAUAAUUCAGUGGCACUAAGUUCAUUCACAAUGAUCUGCAGCCACCACUAUCCCGUCCAGAACUUUCUCAUCACCCCAAAUGGAAACCCAGCACCUAUCCGGCAGUCACGCUCCAACAGAGGAUUGAGCAUCA
B20: ENSG00000130720:stop:overlap|stop_codon|ENSG00000130720|stop_codon|NA|stop_codon (ssRNA)
RNA: GGGAGUUCUACAGUCCGACGAUCGCUGGCAGUACUCACUCAAGUUCUCUGAGAUGAAGAUCCGGCCGGUCCGGGAGGACCGCUAGACUGGUGCACCUUGUCCUUGGCCCUGCUGGUCCCUGUCGCCCCAUCCCCGACCCCACCCAACAGAGGAUUGAGCAUCA
B21: chr16:46956839:46956924:-|3pUTR|ENSG00000069345|msi1_unk|FALSE|overlapping (ssRNA)
RNA: GGGAGUUCUACAGUCCGACGAUCAUCAAUCCAGAUGAACUGAGGGACAUCUGUUGGUCUAUGUAUAACUUUUAAAAUUGGUAUAGUAUCUACAGAGUGUAUAAUUUAAACUAACCACAAAGCUUUACAUCUUCAUUUUGACUGCAACAGAGGAUUGAGCAUCA
B22: chr4:87981664:87981765:+|CDS|ENSG00000118785|msi1|FALSE|unique (ssRNA)
RNA: GGGAGUUCUACAGUCCGACGAUCCACUGAUUUUCCCACGGACCUGCCAGCAACCGAAGUUUUCACUCCAGUUGUCCCCACAGUAGACACAUAUGAUGGCCGAGGUGAUAGUGUGGUUUAUGGACUGAGGUCAAAAUCUAAGAACAACAGAGGAUUGAGCAUCA

Molecular target: T1, UNK ZnF1-6 (called full-length)
Experiment: nsRBNS (natural sequence RNA bind-n-seq); RBNS binding buffer (assumed for nsRBNS): 25 mM Tris pH 7.5, 150 mM KCl, 3 mM MgCl2, 0.01% Triton X-100, 500 ug/ml BSA, 20 U/ml SUPERase-In, 4 C; UNK is unkempt and MSI1 is Musashi-1; names of the RNAs are library labels; protein concentration not given here; high values mean tight binding

Binder	binding signal [enrichment R]
B1	0.324
B2	1.15
B3	0.449
B4	0.946
B5	0.289
B6	1.06
B7	0.37
B8	0.493
B9	1.03
B10	1.13
B11	0.704
B12	1.22
B13	0.553
B14	0.616
B15	0.845
B16	0.634
B17	0.286
B18	0.876
B19	0.445
B20	1.34
B21	0.932
B22	0.646

Reference: PMC12136788
